Data on 1 molecule can be found in US20190127440A1 (VIB VZW, published 2019).

This assay addresses T1, human TSLPR ectodomain (extracellular fragment, NP_071431.2 residue 1-221), C-terminal His-tag (human, UniProt Q9HC73 25-221).
T1 construct: range 25-221; Produced in HEK293S MGAT1-/- cells; also called TSLPR extracellular part; not shown: C-terminal His-tag of the pcDNA4/TO construct
T1 sequence (looked up): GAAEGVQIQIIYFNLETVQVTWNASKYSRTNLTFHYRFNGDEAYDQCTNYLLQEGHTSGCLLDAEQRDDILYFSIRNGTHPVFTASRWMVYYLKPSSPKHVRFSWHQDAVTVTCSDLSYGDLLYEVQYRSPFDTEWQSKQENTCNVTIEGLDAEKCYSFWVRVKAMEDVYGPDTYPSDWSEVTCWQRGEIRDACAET
In words: biolayer interferometry (Octet RED96), biotinylated TSLP on streptavidin biosensors, 1:1 model, average of three replicates. In general terms: BLI is a label-free optical method that tracks binding on a fibre tip over time.

B1: C-terminally biotinylated human TSLP_R127A_R130S (pHL-TSLP_R127A_R130S-AVITAG construct) (ligand)
chain: not shown
modifications: specific C-terminal in vivo biotinylation on the AVITAG
notes: Made in HEK293T cells with BirA co-transfection; immobilised on streptavidin biosensors for BLI; also called biotinylated TSLP; not shown: C-terminal AVITAG (and purification tag) of the pHL-AVITAG vector
As a reminder, the Kd is the constant that tells how readily two partners part at equilibrium. The low end stands for tighter binding, the high end for weaker binding. For orientation: koff means a measure of how fast the partners let go of each other. What is called kon is a measure of how fast the partners come together. Read a high kon as faster complex formation. In turn, B1 registered an equilibrium dissociation constant (Kd) of 0.032 µM, an off-rate constant (koff) of 0.0052 s⁻¹ and a kon of 170000 M⁻¹ s⁻¹.
